Measurements: article PMC4336329 (PLoS ONE, 2015)
About 2,200 (0.71%) of roughly 310,000 compounds showed an effect of 50% or more. The effect is printed as a negative number. The list shows a part of the results.

The compounds below were run against human ether-à-go-go-related gene (hERG) potassium channel (human, UniProt Q12809) (assay: primary screen, population patch clamp on CHO cells stably expressing hERG).
Sequence of human ether-à-go-go-related gene (hERG) potassium channel (Q12809 whole entry, looked up): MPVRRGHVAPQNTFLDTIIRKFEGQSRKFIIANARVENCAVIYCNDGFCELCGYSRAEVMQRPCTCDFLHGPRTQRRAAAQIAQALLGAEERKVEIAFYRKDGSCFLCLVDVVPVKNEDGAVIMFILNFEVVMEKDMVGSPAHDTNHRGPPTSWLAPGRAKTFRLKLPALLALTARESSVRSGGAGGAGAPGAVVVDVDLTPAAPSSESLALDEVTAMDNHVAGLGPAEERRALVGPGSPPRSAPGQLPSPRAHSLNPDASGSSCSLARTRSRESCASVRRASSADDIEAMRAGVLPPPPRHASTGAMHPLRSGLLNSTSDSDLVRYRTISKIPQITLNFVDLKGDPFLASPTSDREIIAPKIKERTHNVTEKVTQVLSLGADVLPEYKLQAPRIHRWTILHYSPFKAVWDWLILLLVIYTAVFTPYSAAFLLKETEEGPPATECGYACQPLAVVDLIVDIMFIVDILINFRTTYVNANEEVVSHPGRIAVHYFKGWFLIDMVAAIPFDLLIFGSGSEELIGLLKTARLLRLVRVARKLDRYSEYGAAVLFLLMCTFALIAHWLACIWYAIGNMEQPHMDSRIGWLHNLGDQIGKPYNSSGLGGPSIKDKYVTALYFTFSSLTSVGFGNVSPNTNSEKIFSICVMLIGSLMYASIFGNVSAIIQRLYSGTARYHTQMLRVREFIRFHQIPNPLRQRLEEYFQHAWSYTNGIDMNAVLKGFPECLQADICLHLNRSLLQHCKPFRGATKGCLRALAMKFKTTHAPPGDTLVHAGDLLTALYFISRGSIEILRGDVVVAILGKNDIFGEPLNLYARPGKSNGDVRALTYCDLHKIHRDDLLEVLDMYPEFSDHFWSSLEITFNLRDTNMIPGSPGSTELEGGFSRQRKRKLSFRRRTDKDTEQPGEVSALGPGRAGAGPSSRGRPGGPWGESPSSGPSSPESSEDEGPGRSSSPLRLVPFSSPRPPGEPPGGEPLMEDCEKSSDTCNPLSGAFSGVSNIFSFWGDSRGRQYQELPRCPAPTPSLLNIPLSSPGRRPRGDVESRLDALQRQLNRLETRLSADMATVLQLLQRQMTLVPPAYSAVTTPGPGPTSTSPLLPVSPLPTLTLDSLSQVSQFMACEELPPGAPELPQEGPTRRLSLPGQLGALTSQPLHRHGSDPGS

SMILES	hERG current change (%, negative = inhibition) at 1uM [%]
N=c1c(S(=O)(=O)c2ccccc2)cc2c(=O)n3ccccc3nc2n1CC1CCCO1 (stereo not shown)	-17
CC1CC(NC(=O)c2c(O)nc3sccn3c2=O)CC(C)(C)C1 (stereo not shown)	15.9
NC(=O)c1oc2ccccc2c1NC(=O)CN1CCCCC1	16.2
C/C(=N\NC(=O)CC1N=C(Cc2ccccc2)NNC1=O)c1ccncc1 (stereo not shown)	12.9
CN1CCN(S(=O)(=O)c2ccc(NCc3ccc4c(c3)OCO4)nc2)CC1	10.3
CCc1ccc(CN(C)C(=O)CC2C(=O)NCCN2Cc2ccoc2)cc1 (stereo not shown)	15.6
COc1ccc(CC(=O)Nc2c(C(=O)N3CCN(c4ncccn4)CC3)oc3ccccc23)cc1OC	-12.8
Cc1ccc(C(=O)COC(=O)CNC(=O)CN2C(=O)c3ccccc3C2=O)cc1	21.3
O=C(CCn1nnc(-c2cccs2)n1)NCc1ccccc1Cl	2.19
Cl.OC(COC(c1ccc(Cl)cc1)c1ccc(Cl)cc1)CN1CCN(c2ccccn2)CC1 (stereo not shown)	-79.7
Cc1ccccc1CC(=O)Nc1ccc(C(=O)N2CCCC2)cc1	17.7
O=C(CN1C(=O)NC2(CCSC2)C1=O)NCc1ccccc1 (stereo not shown)	15.9
CN(C)S(=O)(=O)c1ccc(Cl)c(NC(=O)COC(=O)/C=C/c2ccco2)c1	10.7
CCCC12CN3CC(C)(CN(C1)C3c1ccc3c(c1)OCO3)C2=O (stereo not shown)	0.932
Cc1ccc(OS(=O)Nc2cccc3nccnc23)cc1 (stereo not shown)	4.7
CNC(=S)N(Cc1ccc(OC)cc1)Cc1cc2cccc(C)c2[nH]c1=O	-0.131
COc1cc(C(=O)Nc2ccc3oc(-c4cccnc4)nc3c2)cc(OC)c1OC	2.93
Cc1ccc(CNC(=O)COC(=O)CCOc2ccc(C)cc2)cc1	3.65
CC(C)C[C@H](NC(=O)c1nc[nH]c1C(=O)NC1CC[NH2+]CC1)C(=O)OC(C)(C)C.[Cl-]	19.8
Nc1cccnc1Sc1ccc(Cl)cc1	4.34
Cc1c(C)c2ccc(OCC(=O)N3CC[C@@]4(O)CCCC[C@H]4C3)c(C)c2oc1=O	15.9
O=C(Cn1c(=S)[nH]c2ccccc2c1=O)N1CCN(c2ccccc2)CC1	11.6

SMILES	hERG current change (%, negative = inhibition) at 1uM [%]
O=C(Nc1cccc(F)c1)/C(=C/c1ccco1)NC(=O)c1ccco1	10.3
Cc1cc(C)cc(NC(=O)C2CCCN(S(=O)(=O)c3ccc4[nH]c(=O)ccc4c3)C2)c1 (stereo not shown)	-3.82
Cc1ccc(C(C)C)cc1NC(=O)Nc1ccc([N+](=O)[O-])cc1	5.3
CSc1nsc(SCC(=O)Nc2cccc(NC(C)=O)c2)n1	9.84
COc1ccc(C2=Nn3c(nnc3-c3ccccn3)SC2)cc1OC	-5.62
CN(C(=O)Nc1cnc2ccccc2c1)c1ccccc1	7.98
CCn1c2ccccc2c2nnc(SCCN3CCOCC3)nc21	12.9
O=C(COc1ccc(Cl)cc1Cl)NC(=S)Nc1ccccc1C(=O)O	16.7
Cc1ccccc1C(=O)Nc1ccc(N2CCN(C(=O)c3ccco3)CC2)cc1	13.3
Cc1ccc(S(=O)(=O)N(CC(=O)Nc2ccccc2C(=O)O)c2cccc(Cl)c2C)cc1	10.3
Cc1nc2ccccc2n1CC(=O)NCCN1CCCC1	-3.02
O=C(O)c1cccc(NC(=S)N/N=C/c2cccnc2)c1	10.6
COc1ccc(-n2c(CNC(=O)c3cccs3)n[nH]c2=S)cc1	14.8
CC1CCCCC1NC(=O)COC(=O)c1c2c(nc3ccccc13)/C(=C/c1ccco1)CC2 (stereo not shown)	-0.0827
Cc1ccc(CN2CC(C(=O)N3CCN(c4ccccc4O)CC3)CC2=O)cc1 (stereo not shown)	-1.84
O=C(CN1CCN(C(=O)c2cncn2-c2ccccc2)CC1)Nc1ccccc1Cl	-83.4
CC(=O)Nc1cccc(OC(=O)c2ccoc2C)c1	5.22
CCCn1c(SCC(=O)NCc2cccs2)nc2c1c(=O)n(C)c(=O)n2C	11.7
OCCCn1c(-c2ccccc2)n[nH]c1=S	4.21
COc1cc(C(=O)NC(=S)Nc2nccs2)cc(OC)c1OC	0.0315
O=C(C1=C[C@H](C2CC2)C[C@H](OCc2ccc(CO)cc2)O1)N1CCOCC1	14.7
O=c1c2[nH]c3ccccc3c2ncn1Cc1ccncc1	-0.66

SMILES	hERG current change (%, negative = inhibition) at 1uM [%]
COc1ccc(N2C(=O)NC3CC2(C)Oc2ccc(Br)cc23)cc1OC (stereo not shown)	4.62
Cn1c(-c2ccc(Cl)nc2)nc2cc(Cl)ccc21	7.98
O=C1c2ccccc2C(=O)N1Cc1nc(-c2ccccc2)no1	11.1
O=C(OCC(=O)N(Cc1ccccc1)C1CCS(=O)(=O)C1)c1cc2c(s1)CCCC2 (stereo not shown)	13.2
S=C1NCN(Cc2cccnc2)CN1c1cccc(Cl)c1	11.2
Cc1occc1-c1nnc(SCC(=O)Nc2nccs2)n1CCc1ccccc1	-18.1
CCCOC(=O)c1c(-c2ccc(C)cc2C)csc1NC(=O)C1C2CCC(O2)C1C(=O)O (stereo not shown)	6.33
CSc1cccc(NC(=O)CCNC(=O)c2ccco2)c1	11.8
COc1ccc(-c2nc(CN3CCN(C(=O)c4ccco4)CC3)c(C)o2)c(OC)c1C	-4.61
Cc1ccc(C(=O)c2cc3c(cc2N)OCCO3)cc1	-0.18
Cc1c(NC(=O)COC(=O)COc2ccc(Nc3ccccc3)cc2)c(=O)n(-c2ccccc2)n1C	9.13
CC(C)N1CC=C(c2c[nH]c3ccccc23)CC1	8.75
Cc1ccc(OC/C(O)=C(\C#N)c2nc3ccccc3s2)cc1	9.87
CC1CCN(CC(=O)N2c3ccccc3CC2C)CC1.Cl (stereo not shown)	6.09
O=C(COC(=O)C1CCCC1)NCc1ccc(Cl)cc1	11.1
COC(=O)CNC(=O)CCC(=O)N1CCN(C(c2ccccc2)c2ccccc2)CC1	-6.81
CCOC(=O)C1CCCN(C(=O)CCNS(=O)(=O)c2ccc3c(c2)CCC(=O)N3)C1 (stereo not shown)	7.22
CCC(c1ccccc1)c1nc(-c2cccnc2)no1 (stereo not shown)	-5.3
Cc1ccc(S(=O)(=O)Oc2ccccc2/C=N/N=C(N)N)cc1	2.11
CCc1cccc(CC)c1NC(=O)Cn1c(-c2ccccc2Cl)nc2ccccc21	9.42
CCCc1nnc(NC(=O)CCC(=O)N2CCN(CCn3c(C)ccc3C)CC2)s1	10.3
N/C(=N\OC(=O)CN1C(=O)c2ccccc2C1=O)c1ccc(Br)cc1	13.4

SMILES	hERG current change (%, negative = inhibition) at 1uM [%]
Cc1cc(C(=O)Nc2cccc(S(=O)(=O)N3CCCC3)c2)c2ccccc2n1	15.1
Brc1cccc(CN2CCCCCCC2)c1	1.65
Cc1ccc(S(=O)(=O)Nc2nc3c(s2)C(=O)CC(C)(C)C3)cc1	14.8
CCS(=O)(=O)N1CCC(C(=O)Nc2cc(Cl)ccc2O)CC1	12.3
CCCOc1ccc(C(=O)Nc2ccc(S(=O)(=O)Nc3onc(C)c3C)cc2)cc1	13
Cn1c(NC(=O)c2ccco2)c(-c2ccc(Cl)cc2)c(=O)c2ccccc21	19.6
CCc1cc(=O)[nH]c(SCc2cccc3ccccc23)n1	9.36
Cc1c(NC(=O)C(=O)N/N=C/c2cccs2)c(=O)n(-c2ccccc2)n1C	13.2
CCCc1nc(SCC(=O)Nc2ccccc2OC)c2c(=O)n(C)c(=O)n(C)c2n1	4.49
O=C(Nc1cccc(NC(=S)NC(=O)c2cccs2)c1)c1ccccc1	10.8
CCC(=O)Nc1c2c(nn1-c1cccc(Cl)c1)CS(=O)(=O)C2	4.32
CCN(C(=O)c1ccccc1F)c1nc(-c2ccc(OC)cc2)cs1	9.6
Nc1ncn([C@@H]2O[C@H](CO)[C@@H](O)[C@H]2O)c(=O)n1	6.99
O=C(CCCNS(=O)(=O)c1cccc2nsnc12)NCCc1ccccc1	10.9
Cc1nn(Cc2ccccc2Cl)c(Cl)c1C(=O)O	9.69
CN(C)CCNc1oc(-c2cccc(Cl)c2)nc1C#N	-11.6
Cc1cccc(NC(=O)CSc2nnc(NC(=O)CN3CCCCC3)s2)c1	10.6
O=C1CC(Sc2nnnn2C2CCCCC2)C(=O)N1c1ccccc1 (stereo not shown)	9.94
CC1(C)C=C(c2ccc(C=O)s2)CC(C)(C)N1	8.81
CC(C)OC(=O)CN1C(=O)C(C)(C)Oc2ccc(C(=O)NC(C)(C)C)cc21	3.33
O/N=C1\CCCC\C1=C/c1ccccc1	-0.676
CN1C[C@@H]2C(c3ccc(C(F)(F)F)cc3)C3(c4cccnc4)CC2(C3)[C@H]1c1ccccc1 (stereo partly shown)	4.84
